# The campaign covered roughly 280,000 compounds. About 100 (0.036%) were called active. The inconclusive results got no clear call from the source; some entries with a clear call stand among them for comparison. The call rests on the fitted dose curve; in most records, active means well fitted inhibition curve with a large enough effect in the signal ratio, with a control signal flat (not every such curve was filed as active); inconclusive means small, poorly fitted or top-dose-only effect, or effect the other way, or a change in a side signal; inactive means no such curve, though single readings can be large or run the other way; the % refers to the signal ratio. A potency beside an inconclusive call is a rough fit, not a confirmed value. “Side channel” marks fits to a control or component signal instead of the main read-out.
# Target: Muscleblind-like protein 1 (Homo sapiens) (UniProt Q9NR56)
# UniProt Q9NR56, sequence (Q9NR56 whole entry, looked up): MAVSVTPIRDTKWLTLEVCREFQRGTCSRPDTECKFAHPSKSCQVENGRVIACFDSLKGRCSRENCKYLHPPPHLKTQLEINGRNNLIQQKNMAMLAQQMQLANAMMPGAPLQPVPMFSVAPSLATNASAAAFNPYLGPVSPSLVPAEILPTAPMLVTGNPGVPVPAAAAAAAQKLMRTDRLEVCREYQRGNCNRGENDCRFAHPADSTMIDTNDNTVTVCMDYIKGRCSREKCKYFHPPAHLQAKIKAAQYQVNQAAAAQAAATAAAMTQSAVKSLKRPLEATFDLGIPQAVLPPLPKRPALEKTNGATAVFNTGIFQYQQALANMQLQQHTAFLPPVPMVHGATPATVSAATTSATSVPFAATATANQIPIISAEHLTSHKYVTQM
# Experiment: qHTS Assay for Inhibitors of MBNL1-poly(CUG) RNA binding
# Details: TR-FRET MBNL1-His/biotin-(CUG)12 binding, 665/545 ratio; activity change, negative = inhibition: at 57.5 µM (top of the series)
# Procedure, shortened: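 Compounds (final 92 nM to 58 uM) are added to His-tagged MBNL1 and biotin-(CUG)12, then terbium anti-His antibody and streptavidin-XL665 (5 nM final). After 60 min at room temperature, the 665/545 nm ratio is read.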
# On the % scale 0 is the no-effect control and ±100 the full control effect; potency means the concentration at half of the fitted maximal effect; tags describe the fitted curve by direction and shape or compound fluorescence and quenching.
SMILES,Potency,"activity change, negative = inhibition"
O=C(CNC(=O)c1cccc(F)c1)N/N=C/c1ccc([N+](=O)[O-])s1,"inconclusive: 5.01 µM [quencher, side channel, full curve]",
COc1ccccc1N1CCN(Cc2nc(N)nc(Nc3ccc(C)c(Cl)c3)n2)CC1,,inactive: 15%
CN(CC(=O)Nc1cc([N+](=O)[O-])ccc1Cl)Cc1ccc(Br)cc1,"inconclusive: 25.1 µM [quencher, side channel, partial curve]",
Cc1ccnc(Nc2nc(-c3ccc(O)c(O)c3)cs2)c1,,inactive: -3.31%
CCOC(=O)c1cc2c(=O)n3ccccc3nc2n(CC2CCCO2)c1=NC(=O)/C=C/c1ccccc1 (centres undefined),"inconclusive: 20 µM [quencher, side channel, partial curve]",
COc1cc(NC(=O)c2cc([N+](=O)[O-])ccc2N2CCOCC2)ccc1NC(=O)c1ccco1,"inconclusive: 12.6 µM [quencher, side channel, partial curve]",
Nc1cc(Nc2ccccc2)c2nonc2c1[N+](=O)[O-],"inconclusive: 1.78 µM [quencher, side channel, full curve]",
Fc1cc(Br)ccc1Nc1nc2ccccc2n2nnnc12,"inconclusive: 8.91 µM [fluorescent, side channel, partial curve]",
C(=N\N(c1ccccc1)c1ccccc1)/c1ccccn1,,inactive: 8.8%
COCCNC(=O)Cn1c(=O)n(CCC(=O)NCCc2ccccc2)c(=O)c2ccccc21,"inconclusive: 17.8 µM [fluorescent, side channel, partial curve]",
O=C(NCCN1CCCCC1)Nc1ccc([N+](=O)[O-])cc1,"inconclusive: 20 µM [quencher, side channel, partial curve]",
N#Cc1ccccc1Cn1cc(/C=N/Nc2ccc([N+](=O)[O-])cn2)c2ccccc21,,inactive: 35.3%
C=CCSc1nccc(-c2nn(-c3ccc(C)cc3)ccc2=O)n1,"inconclusive: 28.2 µM [quencher, side channel, partial curve]",
CCN1C=C(Cc2cccs2)C2=C(C1)C(c1cccs1)C(C#N)=C(N)O2 (centres undefined),"inconclusive: 12.6 µM [quencher, side channel, partial curve]",
O=C(CN1C(=O)c2ccccc2C1=O)N(CCO)Cc1ccccc1,"inconclusive: 15.8 µM [quencher, side channel, partial curve]",
O=C(O)c1ccc2c(=O)n3c(nc2c1)/C(=C/c1ccccc1OC(F)F)CC3,"inconclusive: 22.4 µM [quencher, side channel, partial curve]",
Cc1ccc(CCNC(=O)C23CN(Cc4ccccc4)CC2C(c2ccc([N+](=O)[O-])cc2)=NO3)cc1 (centres undefined),"inconclusive: 15.8 µM [quencher, side channel, partial curve]",
Cc1cc(C)nc(N2CCCC(C(=O)NCC(c3ccccc3)c3ccccc3)C2)n1 (centres undefined),"inconclusive: 63.1 µM [inhibitor, single point]",
O=c1cc(CSc2nnc(-c3cccnc3)n2-c2ccccc2F)nc2sccn12,,inactive: -0.811%
Cc1cc(NC(=O)CN2CCC(n3nnc4cc(C(F)(F)F)ccc43)CC2)no1,,inactive: 3.54%

SMILES,Potency,"activity change, negative = inhibition"
Cc1cc(Br)c(S(=O)(=O)n2nnc3ccccc32)cc1C,"inconclusive: 126 µM [inhibitor, partial curve]",
CCOC(=O)c1cc2ccc(OC)c(OC)c2c(=O)s1,"inconclusive: 8.91 µM [quencher, side channel, partial curve, poor fit]",
O=C(Nc1cc(F)ccc1F)C1CCN(S(=O)(=O)c2cccc3nonc23)CC1,"inconclusive: 11.2 µM [quencher, side channel, partial curve]",
Nc1nnc(SCc2c(F)cccc2Cl)s1,"inconclusive: 2.24 µM [quencher, side channel, full curve]",
CC1CCC(NC(=O)c2ccc(S(C)(=O)=O)cc2)CC1 (centres undefined),"inconclusive: 0.0794 µM [fluorescent, side channel, partial curve]",
O=c1nc(N2CCOCC2)ccn1-c1nc(-c2ccccc2)oc1-c1ccccc1,"inconclusive: 28.2 µM [quencher, side channel, partial curve]",
CCn1ncc(CNC(=O)c2cccc([N+](=O)[O-])c2)c1C,"inconclusive: 7.94 µM [activator, single point]",
Cc1ccc(-c2cc(-c3ccccc3)no2)c(O)c1,"inconclusive: 31.6 µM [fluorescent, side channel, single point]",
CCCCOC(=O)Nc1ccc(S(=O)(=O)Nc2cc(C)nc(C)n2)cc1,"inconclusive: 0.501 µM [quencher, side channel, full curve]",
C=CCNC(=O)Nc1ccc2nc(C)sc2c1,active: 31.6 µM,
CCC1CCCCN1CCCNC(=O)Cn1nc(-c2ccc(C)cc2)ccc1=O (centres undefined),"inconclusive: 25.1 µM [quencher, side channel, single point]",
O=C(/C=C/Nc1ccccc1C(=O)O)c1cccs1,"inconclusive: 17.8 µM [quencher, side channel, partial curve]",
COc1ccc(CC(=O)NNS(=O)(=O)c2ccc([N+](=O)[O-])cc2)cc1OC,"inconclusive: 14.1 µM [quencher, side channel, partial curve]",
Cc1cnc(C)c(N2CCN(Cc3cn(C)nc3-c3cccc(Cl)c3)CC2)n1,,inactive: 5.12%
Cn1ccc(C(=O)N/N=C/c2c[nH]c3ccccc23)n1,"inconclusive: 20 µM [quencher, side channel, partial curve]",
O=C(N/N=C/c1cccc([N+](=O)[O-])c1)C1CC(=O)N(c2ccc(Cl)cc2)C1 (centres undefined),"inconclusive: 5.01 µM [quencher, side channel, partial curve]",
Cn1c([N+](=O)[O-])cnc1COC(N)=O,"inconclusive: 25.1 µM [quencher, side channel, partial curve]",
Cc1ccc(S(=O)(=O)NCCn2cnc([N+](=O)[O-])n2)cc1,"inconclusive: 14.1 µM [quencher, side channel, partial curve]",
CCOc1cc(/C=C2\N=C(SCC)SC2=O)cc([N+](=O)[O-])c1OC(C)=O,"inconclusive: 35.5 µM [quencher, side channel, single point]",
Cc1ccc2c(c1)C(c1ccccc1)N(C(=O)c1ccccc1[N+](=O)[O-])CC(=O)N2 (centres undefined),"inconclusive: 25.1 µM [quencher, side channel, single point]",

SMILES,Potency,"activity change, negative = inhibition"
COc1cccc(/C=N/Nc2ccc([N+](=O)[O-])cn2)c1O,"inconclusive: 3.55 µM [quencher, side channel, full curve, poor fit]",
O=C(CN1C(=O)/C(=C2\SC(=S)N(CCS(=O)(=O)O)C2=O)c2ccccc21)Nc1cccc(Br)c1,,inactive: 9.45%
COc1ccc(NC(=O)CN2CCC(NC(=O)c3ccco3)CC2)c([N+](=O)[O-])c1,"inconclusive: 28.2 µM [quencher, side channel, partial curve]",
O=C(N/N=C/c1ccc[nH]1)c1ccc(Cl)cc1,,inactive: -6.4% [at 11.5 µM]
CC(C)NS(=O)(=O)c1ccc(OCC(=O)Nc2cccc(F)c2)cc1,,inactive: -7.86%
O=[N+]([O-])c1ccc(S(=O)(=O)CC(CN2CCCCC2)N2CCCCC2)cc1 (centres undefined),"inconclusive: 14.1 µM [quencher, side channel, partial curve]",
Cc1ccc(S(=O)(=O)N/N=C/c2cccc3nccnc23)cc1,"inconclusive: 6.31 µM [quencher, side channel, partial curve]",
COc1cc(/C=C2\C(=O)ON=C2c2ccccc2)cc(Cl)c1O,"inconclusive: 35.5 µM [quencher, single point]",
CN(CCCC(=O)NCc1ccc2c(c1)OCO2)S(=O)(=O)c1ccc([N+](=O)[O-])cc1,"inconclusive: 7.08 µM [quencher, side channel, partial curve]",
Cn1nc([N+](=O)[O-])nc1N1CCOCC1,"inconclusive: 22.4 µM [quencher, side channel, partial curve]",
CCOC(=O)N1CCC(N2C(=O)c3ccc(C(=O)NCc4ccc(F)cc4)cc3C2=O)CC1,"inconclusive: 0.1 µM [quencher, side channel, full curve, poor fit]",
O=C(NCCCN1CCOCC1)c1ccc([N+](=O)[O-])cc1[N+](=O)[O-],"inconclusive: 11.2 µM [quencher, side channel, partial curve]",
CCc1ccccc1NC(=O)c1cnn(-c2ccccc2)c1C,,inactive: 2.49%
COc1cccc(CNC(=O)c2cccnc2Sc2ccccc2)c1,"inconclusive: 15.8 µM [quencher, side channel, partial curve]",
CN(Cc1ccccc1)C(=O)COC(=O)c1ccc2ccccc2n1,"inconclusive: 17.8 µM [quencher, side channel, partial curve]",
CCS(=O)(=O)N1CCN(c2ccc([N+](=O)[O-])c(NCc3cccnc3)c2)CC1,"inconclusive: 25.1 µM [quencher, partial curve]",
COCCNC(=O)Cn1nc(-c2ccc(Cl)cc2)c2ccccc2c1=O,,inactive: -12.4%
O=[N+]([O-])c1cc(Br)c(O)c(C=Nc2ccc(N3CCOCC3)cc2)c1,"inconclusive: 39.8 µM [quencher, side channel, single point]",
O=C(COc1ncnc2ccc(Br)cc12)Nc1ccc(N2CCOCC2)cc1,,inactive: -9.24%
